{"source": "patent US20260240844A1", "about": "“INHIBITORS OF CHD1L AND USES THEREOF” (The Regents of the University of Colorado, a body corporate, priority 2023, published 2026)", "system": "γ-H2AX foci in SUM149PT cells", "conditions": "for DNA damage (γ-H2AX foci): single agent; for DNA damage in combination: combined with Compound 6", "data": [{"compound": "Cc1cc(Nc2ccc(NC(=O)Cc3cccs3)cc2)nc(N2CCCC2)n1", "note": "[Compound 6, N-(4-((6-methyl-2-(pyrrolidin-1-yl)pyrimidin-4-yl)amino)phenyl)-2-(thiophen-2-yl)acetamide]", "values": [{"measurement": "Bliss Synergy Score, γ-H2AX foci", "setting": "SUM149PT cells, Compound 6 combined with olaparib", "result": 11.19}, {"measurement": "DNA damage (γ-H2AX foci)", "result": "does not cause DNA damage"}]}, {"compound": "Cc1cc(Nc2ccc(NC(=O)Cc3cc(Br)cs3)cc2)nc(N2CCCC2)n1", "note": "[Compound 6.11, 2-(4-bromothiophen-2-yl)-N-(4-((6-methyl-2-(pyrrolidin-1-yl)pyrimidin-4-yl)amino)phenyl)acetamide]", "values": [{"measurement": "DNA damage (γ-H2AX foci)", "result": "does not induce DNA damage"}]}, {"compound": "COc1cccc2c1C(=O)c1c(O)c3c(c(O)c1C2=O)C[C@@](O)(C(=O)CO)C[C@@H]3O[C@H]1C[C@H](N)[C@H](O)[C@H](C)O1", "note": "[doxorubicin]", "values": [{"measurement": "DNA damage in combination", "setting": "SUM149PT cells", "result": "synergistic increase in DNA damage"}]}, {"compound": "O=c1[nH]cc(F)c(=O)[nH]1", "note": "[Compound 5-FU, 5-fluorouracil]", "values": [{"measurement": "DNA damage in combination", "setting": "SUM149PT cells", "result": "synergistic increase in DNA damage"}]}]}
